Results on 96 compounds are retold here after PubChem BioAssay AID1508624 (National Center for Advancing Translational Sciences (NCATS), 2021).

Among all 48,000 compounds or so, about 120 (0.25%) were called active. Inconclusive results (about 4%) are left out. Calls follow the shape of the dose curve; as a rule, active = well fitted activation curve with a large enough effect; inconclusive = small, poorly fitted or top-dose-only effect, or another doubt; inactive = no such curve, though single readings can be large or run the other way. Some of the results follow.

The assay can be described thus: Primary qHTS for Identification of Small Molecule Activators of Huntingtin-Antisense Promoter Activity. Also: nearly all actives have a fitted effect of over 55% in size. The conditions noted are these: HEK293 HTT-AS promoter firefly luciferase reporter, 24 h; series mostly up to 57.5 µM; activity change, positive = activation: at the top concentration. The essentials: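 Luminescence was read after Dual-Glo reagent and a 10 min room-temperature incubation. Values were normalized to vehicle (0% activity) and zero RLU (-100% activity). Reporter HEK293 cells had been exposed to compounds (up to 57.5 uM final) for 24 h.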
Background: qHTS replaces the single test concentration by a dilution series.
Turning to `COc1ccccc1/C=C/c1nc(C#N)c(NCCc2ccccc2)o1`, the “activity change, positive = activation” value is inactive: 7.6%.

With `CCOc1ccc(-c2nc(Cn3ccn4nc(-c5ccc(OCC)c(Cl)c5)cc4c3=O)c(C)o2)cc1`, the “activity change, positive = activation” value was inactive: -0.31%.

On to `Cc1ccccc1Nc1cc(C(=O)NCc2cccs2)c2ccccc2n1`, for which the “activity change, positive = activation” value was inactive: -1.58%. Then `COc1ccc(C)cc1N(C)C(=O)c1c2c(nc3ccccc13)C(=O)N(C1CCCCC1)C2`, with inactive: -17.3%. Then `CCOc1ccc(N(CC)S(=O)(=O)N2CCCC(C(=O)Nc3cc(Cl)ccc3OC)C2)cc1` (stereo unspecified), with inactive: -22.6%; and `Cc1cccc(OCCn2c(SCC(=O)O)nc3ccccc32)c1`, with inactive: -10.4%; and `COc1ccc(CNS(=O)(=O)c2ccc(-c3cnc(C4CC4)o3)cc2)cc1`, with inactive: -22.1%. The figure for `COc1ccc(Nc2ncc(C(=O)N3CCN(c4ccc(F)cc4)CC3)c3ccccc23)cc1` is inactive: -33.5%. With `O=C(CN1C(=O)CCc2cc(S(=O)(=O)N3CCOCC3)ccc21)Nc1cccc(C(F)(F)F)c1`, the “activity change, positive = activation” value is inactive: -26.8%.

Turning to `Cc1ccc2c(=O)cc(C(=O)Nc3sc4c(c3C(=O)NCc3ccccc3)CCCC4)oc2c1C`, the “activity change, positive = activation” value was inactive: 8.41%. `CCCCCCOc1ccc(C2C(=O)N(C3CCCCC3)CC(=O)N2CCCC)cc1` (stereo unspecified): the “activity change, positive = activation” value was inactive: -16.1%. Then `O=C(Nc1sc2c(c1C(=O)N1CCCCC1)CCCC2)c1ccccc1Cl`, with inactive: -18.7%; and `Cc1noc(Cn2c(=O)c3cc4c(cc3n(CC(=O)Nc3ccccc3Br)c2=O)OCO4)n1`, with inactive: -20.4%. For `COc1ccc(NC(=O)CNC(=O)Cn2c(C)cc3ccccc3c2=O)cc1OC`, the “activity change, positive = activation” value is inactive: -27.6%.

On to `CCCCN1C(C(=O)c2ccccc2)=C(OC(C)=O)c2ccccc2S1(=O)=O`, for which the “activity change, positive = activation” value is inactive: -48%. For the compound `CN(C)c1ccc(CNC(=O)CCS(=O)(=O)c2ccc3c(c2)oc(=O)n3C)cc1`, the activity change, positive = activation was inactive: 16.9% [at 11.5 µM, percent change from vehicle, -100% = no light].

Consider `CCCS(=O)(=O)N1CCCC(C(=O)NCCOC)C1` (stereo unspecified), for which the “activity change, positive = activation” value was inactive: -16.8%. Then `CCCCN(CCCC)C1=C(C(=O)c2ccccc2)N(C)S(=O)(=O)c2ccccc21`, with inactive: -19.3%. The figure for `Cc1ccccc1CNC(=O)CN(c1cccc(C)c1C)S(C)(=O)=O` is inactive: -6.69%. The figure for `COc1ccccc1NC(=O)CSC1=Nc2ccccc2C2=NC(CCC(=O)NCc3cccs3)C(=O)N12` (stereo unspecified) is inactive: -19.1%; for `CCCCN(CC)C(=O)Cn1ncc2c3ccccc3n(CCC)c2c1=O` it is inactive: -21.9%. As to `COc1ccc(-n2cc(C(=O)NCc3ccccc3Cl)c3ccccc3c2=O)cc1`, the “activity change, positive = activation” value is inactive: -7.11%. The figure for `Cn1c(=O)[nH]c2cc(-c3noc(-c4cccc(Cl)c4)n3)ccc21` is inactive: 2.89%; for `CCCNC(=O)Cn1nc(-c2ccc(F)cc2)c2cnc3ccc(F)cc3c21` it is inactive: 11.3%; for `CCOc1cccc(C(=O)N(Cc2ccc(CC)cc2)C2CCS(=O)(=O)C2)c1` (stereo unspecified) it is inactive: -3.5%.

Consider `COc1ccc(-c2nc3scc(CCNS(=O)(=O)c4ccc(NC(C)=O)cc4)n3n2)cc1`, for which the “activity change, positive = activation” value is inactive: -22.4%.

With `CCN(CC)CCNC(=O)c1c(C)[nH]c(/C=C2\C(=O)Nc3ccc(F)cc32)c1C`, the “activity change, positive = activation” value is inactive: -24.4%. The figure for `COc1cc2nc(SCC(=O)Nc3ccccc3F)n3nc(-c4ccccc4)nc3c2cc1OC` is inactive: -6.02%; for `CCOc1ccc(Cn2c(CNS(=O)(=O)c3cccc(Cl)c3)nc3cccnc32)cc1` it is inactive: -23.1%; for `CCc1ccc(NC(=O)CSc2nc3c(sc4ccccc43)c(=O)n2CCCOC(C)C)cc1` it is inactive: -7.04%. In the case of `COc1ccccc1C(=O)N1CCN(Cc2cc(=O)oc3cc(C)ccc23)CC1`, the “activity change, positive = activation” value was inactive: -17.8%. With `Cc1ccc(CNC(=O)c2ccc(CSCc3ccccc3C)o2)cc1`, the “activity change, positive = activation” value is inactive: -17.7%. On to `COc1ccc(-c2nc3ccc(NS(=O)(=O)c4ccc(Cl)cc4)cc3o2)cc1`, for which the “activity change, positive = activation” value was inactive: -13%.

Take `COc1ccc(-c2nnc(SCc3cccc(Cl)c3)o2)cc1`: the “activity change, positive = activation” value is inactive: 17%. Then `CC(=O)N1CCC(N(Cc2ccc(C)o2)C(=O)Nc2ccc(C)cc2)CC1`, with inactive: -1.5%; and `CCOc1ccc(OCC)c(NS(=O)(=O)c2ccc(-c3coc(C)n3)cc2)c1`, with inactive: -37.4%; and `Cn1c(=O)[nH]c(=O)c2c1nc(NCCc1ccccc1)n2Cc1ccc(F)cc1`, with inactive: -18.5%.

As for `COc1ccc(NC(=O)c2c(NC(=O)c3ccc(Br)cc3)sc3c2CCCC3)cc1`, the “activity change, positive = activation” value is inactive: -60.4%. The figure for `Cn1cc(S(=O)(=O)N2CCOCC2)cc1C(=O)Nc1ccc(Cl)c(C(F)(F)F)c1` is inactive: -39.5%; for `Cc1cc(NC(=O)Nc2nnc(N(C)Cc3ccccc3)s2)ccc1Br` it is inactive: -15.1%; for `CCOc1ccc2nc(NC(=O)c3nc(SC)ncc3Cl)sc2c1` it is inactive: 24.6%.

For `CCOc1ccccc1NC(=O)Cc1noc2ccc(C)cc12`, the “activity change, positive = activation” value is inactive: 14%. The figure for `COc1cc(NC(=O)c2cn(C3CCCC3)c(=O)c3c2c2ccccc2n3C)cc(OC)c1OC` is inactive: -34.5%. As for `CC(=O)C1=C(c2ccc(Cl)cc2)N(C(C)=O)n2c(nnc2C2CCCCC2)S1`, the “activity change, positive = activation” value is inactive: -17%. The figure for `Cc1ccc(Cl)cc1N(C)C(=O)c1cn(C2CCCCC2)c(=O)c2c1c1ccccc1n2C` is inactive: -8.47%; for `Cc1ccc(N(CC(=O)Nc2cccc(Cl)c2)S(=O)(=O)c2cccs2)cc1` it is inactive: -31.7%; for `CCN(Cc1ccccc1)S(=O)(=O)c1ccc2c(c1)CC(C)N2C(=O)C1CCC1` (stereo unspecified) it is inactive: -33%. The figure for `Cc1ccc2c(c1)N(CCC(=O)NCc1ccccc1Cl)C(=O)CO2` is inactive: -16%; for `O=c1c2oc3ccccc3c2n(Cc2ccccc2F)c(=O)n1Cc1ccccc1` it is inactive: -18.5%. For `Cc1ccc2onc(CC(=O)Nc3ccc(C(C)C)cc3)c2c1`, the “activity change, positive = activation” value is inactive: -2.96%. Then `COc1cccc(CNC(=O)c2cc3c(=O)oc4ccc(C)cc4c3s2)c1`, with inactive: -1.14%; and `CCCCNC(=O)c1cccc(-n2c(C)nc3cccnc32)c1`, with inactive: -6.36%. In the case of `Fc1ccc2c(c1)-c1nc(-c3ccccc3)cc(-c3ccccc3)c1CO2`, the “activity change, positive = activation” value is inactive: 0.28%. Turning to `COc1ccc(N(C(=O)c2cccc(C)c2)S(=O)(=O)c2ccc(Cl)cc2)cc1`, the “activity change, positive = activation” value was inactive: -35.8%.

As to `CCOc1cc(C(=O)N2CCn3c4c(c5cc(C)ccc53)CCCC42)cc(OCC)c1OCC` (stereo unspecified), the “activity change, positive = activation” value is inactive: -8.65%. The figure for `CCOc1ccc(CNS(=O)(=O)c2ccc(-c3coc(C)n3)cc2)cc1` is inactive: -27.3%; for `COc1ccc(N2CCN(CCCNC(=O)Cn3c(-c4cccs4)cc4ccccc43)CC2)cc1` it is inactive: -31.4%; for `COc1cccc(C2C(C(=O)Nc3ccc(C)cc3C)=C(C)Nc3nc4ccccc4n32)c1OC` (stereo unspecified) it is inactive: -16.8%. Then `COc1ccc2nc(N(Cc3cccnc3)C(=O)C3CCCCC3)sc2c1`, with inactive: -3.31%. `CC1(C)C(=O)N(CC(=O)Nc2ccc(Br)cc2F)c2ccccc21`: the “activity change, positive = activation” value is inactive: -17.2%. Then `Cc1nc2ccc(S(=O)(=O)N(C)CC(=O)Nc3cccc(C(F)(F)F)c3)cc2s1`, with inactive: -28.1%. The figure for `CCOC(=O)c1cc(S(=O)(=O)N2CCN(c3ccccc3F)CC2)[nH]n1` is inactive: -17.7%; for `CC(=O)c1cc(-c2ccccc2)n(CCC(=O)Nc2ccc(C)cc2C)c1C` it is inactive: -25.2%; for `COc1ccc(N2CC(NC(=O)c3cc4ccccc4o3)CC2=O)cc1` (stereo unspecified) it is inactive: -11%. For the compound `Cc1cc(C(=O)NCc2ccc(Cl)cc2)c2c(C)nn(-c3ccccc3)c2n1`, the “activity change, positive = activation” value was inactive: 17.4%. On to `COc1ccccc1CNC(=O)CCC1N=C2c3ccccc3N=C(SCc3ccc(C)cc3)N2C1=O` (stereo unspecified), for which the “activity change, positive = activation” value was inactive: 12.6%. The figure for `COC(=O)c1c(NC(=O)Nc2ccc(Cl)cc2)sc(C)c1C` is inactive: -30.7%.

As for `Cc1ccc2c(c1)N(C(=O)Nc1cccc(C)c1C)CCO2`, the “activity change, positive = activation” value is inactive: -26.3%. Then `CS(=O)(=O)N1CCc2cc(C(=O)N3CCN(c4ccccc4)CC3)ccc21`, with inactive: 10.2%; and `CCCc1nnc(NC(=O)c2cc(=O)c3cc(Cl)ccc3o2)s1`, with inactive: -3.18%. The figure for `COc1ccc(CCC(=O)NCCc2csc(-c3ccc(C(F)(F)F)cc3)n2)cc1` is inactive: -23.4%.

`Cc1ccc2c(c1)c(N1CCCC1=O)c(C(=O)Nc1ccc(F)cc1F)n2C`: the “activity change, positive = activation” value is inactive: -22.6%. Then `Cc1cccc(N(C)c2ccc3cc(S(=O)(=O)N4CCCC4)ccc3n2)c1`, with inactive: -13.5%. For the compound `CCC(=O)N1CCc2cc(S(=O)(=O)NC(Cc3ccccc3)C(=O)Nc3cccc(OC)c3)ccc21` (stereo unspecified), the “activity change, positive = activation” value was inactive: 5.26%. Then `Cc1ccc(-c2nnc3c4ccccc4c(C)nn23)cc1NC(=O)c1ccccc1Cl`, with inactive: -4.87%. Then `COc1cccc(N2CCN(c3ncnc4onc(-c5ccc(F)cc5)c34)CC2)c1`, with inactive: -11.3%. Then `CCOC(=O)c1cc(S(=O)(=O)N2CCN(c3ccc(C)cc3C)CC2)[nH]n1`, with inactive: -14.9%; and `Cc1ccc(C)c(NC(=O)CSC2=Nc3ccccc3N=C(c3ccc(F)cc3)C2)c1`, with inactive: -15.7%. Regarding `O=C(CCCCCn1c(=O)[nH]c2ccccc2c1=O)NCc1ccccc1`, the “activity change, positive = activation” value is inactive: 5.27%. The figure for `O=C(C1CCCN(S(=O)(=O)c2cccc3nsnc23)C1)N1CCN(c2ccccc2Cl)CC1` (stereo unspecified) is inactive: -32.2%. The figure for `CN(C)c1ccc(NC(=O)Cn2cc(S(=O)(=O)Cc3cccc(Cl)c3)c3ccccc32)cc1` is inactive: -28.9%; for `Cc1nc2scc(C)n2c(=O)c1S(=O)(=O)N1CCN(c2cccc(C(F)(F)F)c2)CC1` it is inactive: -32.6%; for `O=C(CSc1nc(-c2cccs2)nc2cc(=O)[nH]n12)Nc1ccccc1F` it is inactive: -17.7%.

Consider `CCCOc1ccc(C(=O)Nc2ccc(Cl)c(-c3nc4ncccc4o3)c2)cc1`, for which the “activity change, positive = activation” value is inactive: 3.26%. For the compound `CCOc1ccc(CCNC(=O)CSc2cc(=O)n(C)c3cc(Cl)ccc23)cc1OCC`, the “activity change, positive = activation” value was inactive: -22.1%. The figure for `Cc1c(-c2nsc(NC(=O)c3cccc(Cl)c3)n2)nnn1-c1ccccc1C(F)(F)F` is inactive: -85.6%; for `CCOc1ccc(CCNC(=O)CCc2c(C)nc3cc(-c4ccccc4OC)nn3c2C)cc1` it is inactive: -81.2%. Consider `CSc1ccc(CCNC(=O)CN2C(=O)c3cccnc3Oc3ccc(Cl)cc32)cc1`, for which the “activity change, positive = activation” value is inactive: -16.6%.

For the compound `COc1cc(C(=O)N2CCc3c([nH]c4ccccc34)C2c2ccc(C)cc2)cc(OC)c1OC` (stereo unspecified), the “activity change, positive = activation” value is inactive: -40.2%. The figure for `Nc1c(-c2nc(-c3ccc4c(c3)OCO4)cs2)c2ccccn2c1C(=O)c1ccccc1` is inactive: -1.49%; for `CCCCn1c(NCc2cc(Cl)ccc2O)nc2ccccc21` it is inactive: -36.7%. The figure for `COc1ccc(CNCCC(c2ccccc2)c2ccc3c(c2)OCO3)cc1` (stereo unspecified) is inactive: -22.8%; for `CCCC1=Nc2cc(C(=O)NCCc3ccccc3)ccc2Sc2ccc(C)cc21` it is inactive: -42.6%; for `COc1ccccc1NC(=O)NCc1cccn1Cc1ccccc1` it is inactive: -7.96%. The figure for `Cc1cc(Br)ccc1NC(=O)c1ccc(NS(=O)(=O)c2c(C)noc2C)cc1` is inactive: -10.3%; for `COc1ccc(NC(=O)Cn2cnc3ccc(S(=O)(=O)N4CCC(C)CC4)cc3c2=O)cc1OC` it is inactive: -28.8%.
